Results: PubChem BioAssay AID493208 (National Center for Advancing Translational Sciences (NCATS), 2011)
Out of some 44,000 compounds screened, about 340 (0.77%) were called active. Inconclusive results (about 5%) are left out. Calls come from the whole dose curve; as a rule, active = well fitted inhibition curve with a large enough effect; inconclusive = small, poorly fitted or top-dose-only effect; inactive = flat fitted curve, though single readings scatter. The list shows a part of the results.

Experiment: Acumen qHTS Assay for Inhibitors of the mTORC1 Signaling Pathway in MEF (Tsc2-/-, p53-/-) Cells: Sytravon; note: nearly all actives have a fitted effect of over 50% in size;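 for activity change, negative = inhibition: plate controls were DMSO for no effect and rapamycin for full effect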
Conditions: phospho-rpS6 immunofluorescence/PI, 24 h; series mostly up to 38.3 µM; activity change, negative = inhibition: at the top concentration
Method in brief: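 Compounds act on Tsc2-/-, p53-/- fibroblasts carrying an empty vector for 24 h before fixation and dual staining for phospho-S6 and DNA (propidium iodide). Values are percentages of cells above a rapamycin-defined pS6/PI threshold.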
Potency is the fitted concentration of half-maximal effect.

| Compound | Potency | activity change, negative = inhibition |
| --- | --- | --- |
| CC(C(=O)NCc1cccc(Br)c1)n1ncn2cccc2c1=O (stereo not drawn) | active: 585 nM |  |
| Cc1ccccc1NC(=O)CCOc1ccccc1 |  | inactive: 4.67% |
| Cn1cc(-c2cc3n(n2)CCC(=O)N3CCCC(=O)Nc2ccccc2Cl)c2ccccc21 |  | inactive: -4.62% |
| Cc1ccccc1S(=O)(=O)Cc1ccc(C(=O)NCc2ccccc2Cl)o1 |  | inactive: -15.5% |
| Nc1nn(-c2ccccc2)nc1C(=O)OCc1ccccc1Br |  | inactive: 0.519% |
| Cc1ccc(NC(=O)c2cc(CN3CCOCC3)on2)cc1Cl |  | inactive: 0.0331% |
| CC1=C(C(=O)Nc2ccc(C)cc2Cl)C2(CCCCC2)OC1=O |  | inactive: -6.53% |
| COc1ccc2c(c1)CCc1c(C(=O)Nc3c(C)nn(Cc4c(Cl)cccc4Cl)c3C)noc1-2 |  | inactive: 2.3% |
| CCOC(=O)c1c(C)[nH]c(C)c1S(=O)(=O)NCC(=O)Nc1ccc(CC)cc1 |  | inactive: 9.2% |
| CCc1ccccc1NC(=O)c1cc2sc(Cl)cc2n1CC |  | inactive: -0.7% |
| O=C(c1cccs1)c1cn(CCOc2ccc(F)cc2)c2ccccc12 |  | inactive: 1.07% |
| O=C(Cn1cnc2onc(-c3ccc(F)cc3)c2c1=O)N1CCN(c2ccccc2F)CC1 |  | inactive: 1.45% |
| O=C(O)Cc1sc(Nc2ccc(C(=O)O)cc2)nc1-c1ccccc1 |  | inactive: -0.963% |
| CCOC(=O)c1noc2ncn(CC(=O)Nc3cc(Cl)ccc3OC)c(=O)c12 |  | inactive: 1.68% |
| CCOc1ccccc1CNC(=O)CCCN1C(=O)COc2ccc(C)cc21 |  | inactive: -0.739% |
| COc1ccc(-c2cn(-c3ccc(C)cc3)c(S(=O)(=O)CC(=O)Nc3ccccc3)n2)cc1 |  | inactive: 1.38% |
| Cc1cc(Br)ccc1NC(=O)c1coc(=O)c2ccccc12 |  | inactive: -0.134% |
| Cc1oc2ncn(CC(C)C)c(=O)c2c1C(=O)Nc1cccc(C(F)(F)F)c1 |  | inactive: 0.841% |
| O=C(Nc1ccc(Cl)c(Cl)c1)c1cc(S(=O)(=O)N2CCN(c3cccc(Cl)c3)CC2)ccc1F |  | inactive: 1.55% |
| CC(C)c1ccccc1NC(=O)CSc1nnc(COc2ccccc2)o1 |  | inactive: 4.06% |
| Cc1ccc(CNC(=O)CN(C)S(=O)(=O)c2ccc(Br)s2)cc1 |  | inactive: -2.07% |
| CCn1c(=O)c2sccc2n2c(CCC(=O)N3CCN(c4ccccc4OC)CC3)nnc12 |  | inactive: 5.96% |
| O=C(NCCCCc1ccccc1)c1nn(-c2ccccc2F)nc1CO |  | inactive: -2.03% |
| Cc1nn(CCC(=O)NCc2cccc(Br)c2)c(=O)c2nn(-c3ccccc3)c(C)c12 |  | inactive: -1.24% |
| CC(C)OCCCn1c(SCC(N)=O)nc2c(sc3ccccc32)c1=O |  | inactive: 2.72% |

| Compound | Potency | activity change, negative = inhibition |
| --- | --- | --- |
| COc1ccc(-c2nnc(SCC(=O)Nc3ccccc3C)o2)cc1OC |  | inactive: 3.97% |
| CCCOc1ccc(C(=O)NCC(c2ccc(OC)cc2)N2CCCCC2)cc1 (stereo not drawn) |  | inactive: -12.4% |
| CC(C)NC(=O)Cn1ccc2cc(S(=O)(=O)N3CCCCCC3)ccc21 |  | inactive: -2.42% |
| CC(NC(=O)c1ccc(CSc2nc3ccncc3n2Cc2ccc(F)cc2)cc1)c1ccccc1 (stereo not drawn) |  | inactive: 1.11% |
| Cc1cccc(OCCCSc2nc(-c3ccc(C(C)(C)C)cc3)nc3cc(=O)[nH]n23)c1C |  | inactive: -1.78% |
| Cc1cccc(-n2c(=O)c3c(c4cc(C)ccc4n3C)n(CC(=O)Nc3ccccc3Cl)c2=O)c1 |  | inactive: 2.47% |
| CCCCCn1c(=O)[nH]c2cc(C(=O)NCc3ccc(F)cc3)ccc2c1=O |  | inactive: -1.81% |
| COCCNC(=O)c1ccc2c(c1)N(Cc1ccc(C(F)(F)F)cc1)C(=O)c1ccccc1S2 |  | inactive: 0.242% |
| CC(C)c1ccc(S(=O)(=O)c2nnn3c2nc(N2CCOCC2)c2sccc23)cc1 |  | inactive: -4.2% |
| CC1CCN(S(=O)(=O)c2ccc3c(ccn3CC(=O)NCc3ccc(N(C)C)cc3)c2)CC1 |  | inactive: -4.81% |
| COc1ccc(Cl)cc1NC(=O)Cn1nc(C(F)(F)F)c2c1CCC2 |  | inactive: -13.4% |
| COc1ccc(CCC(=O)NCc2nc3cccnc3n2Cc2cccc(OC)c2)cc1 |  | inactive: -0.758% |
| CCC1CN(C(=O)N2CCC(C(=O)N3CCN(c4ccc(F)cc4)CC3)CC2)c2ccccc2O1 (stereo not drawn) |  | inactive: 3.88% |
| CCCCc1nn2c(=O)cc(COC(=O)C(C)Oc3ccccc3)nc2s1 (stereo not drawn) |  | inactive: 0% |
| Cc1c(C(=O)Nc2ccccc2Br)oc2ccc(S(=O)(=O)N3CCOCC3)cc12 |  | inactive: 10.3% |
| Cc1ccc(NC(=O)C2CCN(C(=O)c3cnn(-c4ccccc4)c3-n3cccc3)CC2)cc1 |  | inactive: -0.37% |
| CCOC(=O)N1CCc2c(sc3c2c(=O)n(-c2ccc(CC)cc2)c(=O)n3CC(=O)c2ccccc2)C1 |  | inactive: -1.18% |
| COc1ccc2c(c1)CC(NC(=O)Nc1ccc(NC(C)=O)cc1)CO2 (stereo not drawn) |  | inactive: 0% |
| CC(C)CNC(=O)c1c(-c2ccccc2)c(-c2ccccc2)nn(C)c1=O |  | inactive: -11.9% |
| Cc1ccccc1Cn1c(=O)n(CCCCC(=O)NCc2ccccc2Cl)c(=O)c2ccccc21 |  | inactive: -5.54% |
| O=C(NCc1ccccc1Cl)c1ccc(NC(=O)c2nsc3ccccc23)cc1 |  | inactive: 5.22% |
| COc1ccccc1CNC(=O)C1CCN(Cc2cc3ccccc3n2Cc2cccc(C)c2)CC1 |  | inactive: 1.36% |
| O=C(CSc1nnc(-c2ccncc2)n1-c1ccccc1)Nc1ccc(Br)cc1 |  | inactive: -4.74% |
| CCOc1ccc(NC(=O)C2CCN(S(=O)(=O)c3ccc4c(c3)oc(=O)n4C)CC2)cc1 |  | inactive: -4.75% |
| CCOc1cc(C)c(C(C)C)cc1S(=O)(=O)n1ccnc1CC |  | inactive: -26.8% |

| Compound | Potency | activity change, negative = inhibition |
| --- | --- | --- |
| CCOc1ccc2nc(N3CCC(C(=O)Nc4ccc(Br)cc4F)CC3)sc2c1 |  | inactive: -7.6% |
| CCCNC(=O)c1c(NC(=O)c2ccc(C)cc2)sc2c1CCCCC2 |  | inactive: -12% |
| CC(=O)N1CCOc2cc(S(=O)(=O)Nc3cc(C(F)(F)F)ccc3Cl)c(C)cc21 |  | inactive: -10.5% |
| COc1ccc2c(c1)c1c(c(=O)n(Cc3ccccc3)c(=O)n1Cc1ccccc1)n2C |  | inactive: 0.103% |
| CCSc1ncc(Cl)c(C(=O)N(Cc2ccc(C(C)(C)C)cc2)C2CCS(=O)(=O)C2)n1 (stereo not drawn) |  | inactive: -16.4% |
| CCOC(=O)c1c(C)oc2nc(C)nc(NCCCN3CCN(c4cc(Cl)ccc4C)CC3)c12 |  | inactive: 6.72% |
| CCOC(=O)c1cccc(NC(=O)Nc2ccc3c(c2)N(C)C(=O)c2ccccc2S3)c1 |  | inactive: -11.1% |
| Cc1ccc(-c2noc(-c3nnn(CC(=O)Nc4cccc(C(F)(F)F)c4)c3N)n2)cc1 |  | inactive: -0.473% |
| O=C(NCCCN1CCN(c2ccccc2F)CC1)C1COc2ccccc2C1 (stereo not drawn) |  | inactive: -0.568% |
| Cc1ccc(C(=O)NCC(=O)OCc2cc(=O)n3nc(C4CC4)sc3n2)cc1 |  | inactive: -7.36% |
| O=C(O)c1cccnc1SCc1cccc(Cl)c1 |  | inactive: 6.3% |
| COc1ccc(S(=O)(=O)Cc2ccc(C(=O)N3CCN(c4cc(C)ccc4C)CC3)o2)cc1 |  | inactive: -2.2% |
| O=C(Nc1cccc(-c2nc3ccccc3[nH]2)c1)c1c(F)cccc1F |  | inactive: -15.5% |
| CCc1ccc(NCc2cc3cc4c(cc3n(CC(=O)Nc3ccc(OC)cc3)c2=O)OCO4)cc1 |  | inactive: 0.695% |
| Cn1c(SCC(=O)N2CCOCC2)ncc(C(=O)Nc2ccc(F)cc2)c1=O |  | inactive: 0.569% |
| CCc1ccc(C2c3c(-c4cc(C)ccc4O)n[nH]c3C(=O)N2CCO)cc1 (stereo not drawn) |  | inactive: 2.49% |
| CCCSc1nc2sc3c(c2c(=O)n1-c1ccc(C)cc1)CCCC3 |  | inactive: 3.79% |
| CCOC(=O)c1c(S(=O)(=O)NCC(=O)Nc2cccc(SC)c2)c(C)n(C)c1C |  | inactive: -11.4% |
| CC1=C(c2ccc(C(C)C)cc2)S(=O)(=O)NC1=NCc1ccc(OC(C)C)cc1 |  | inactive: -1.76% |
| Cc1ccc(CNC(=O)C2CCCN(c3nc4ccccc4n4cccc34)C2)cc1 (stereo not drawn) |  | inactive: 8.39% |
| CC1CCN(CCCNC(=O)CN2C(=O)CSc3ccc(S(=O)(=O)N4CCCCC4)cc32)CC1 |  | inactive: 8.2% |
| COc1ccc(C(C)NC(=O)CN(c2cc(OC)ccc2OC)S(=O)(=O)c2ccccc2)cc1 (stereo not drawn) |  | inactive: 5.21% |
| Brc1cccc(-c2nn(-c3ccccc3)c3c2cnc2cc4c(cc23)OCO4)c1 |  | inactive: -1.74% |
| COCCn1c(CNC(=O)c2ccccc2C)nc2cccnc21 |  | inactive: -1.17% |
| COc1ccc(NC(=O)Nc2cccc(-c3noc(C)n3)c2)cc1 |  | inactive: -4.8% |

| Compound | Potency | activity change, negative = inhibition |
| --- | --- | --- |
| O=C(c1cccs1)N1CCCc2cc(NS(=O)(=O)c3ccc(Br)cc3)ccc21 |  | inactive: 0.106% |
| CCc1cccc(C)c1NC(=O)C1CCN(S(=O)(=O)c2cc(Br)cc3c2N(C(C)=O)CC3)CC1 |  | inactive: -6.9% |
| COc1cccc(-n2ccnc2SCC(=O)Nc2cccc3ccccc23)c1 |  | inactive: -2.97% |
| O=C(NCc1ccccc1Cl)c1ccc2c(c1)ncn2-c1cccc(F)c1 |  | inactive: -10.1% |
| COc1ccc(-n2c(CC3C(=O)Nc4ccc(C)cc43)nc3ccccc3c2=O)cc1 (stereo not drawn) |  | inactive: 0.587% |
| CCCSC1=NC2(CCN(C(=O)NC3CCCCC3)CC2)N=C1c1ccc(OC)cc1 |  | inactive: -6.73% |
| O=c1c2c3c(sc2nnn1CCCCOc1ccc(Cl)cc1)CCCC3 |  | inactive: 1.82% |
| COc1cc(-c2noc(-c3cc4cccc(C)c4oc3=O)n2)cc(OC)c1OC |  | inactive: 3.88% |
| CCOc1ccccc1-n1c(N)c(C(=O)OC)c2nc3ccccc3nc21 |  | inactive: -2.46% |
| COc1ccc(-c2nsc(NC(=O)c3oc4ccc(Cl)cc4c3C)n2)cc1 |  | inactive: 0.969% |
| O=C(Nc1ccc(F)cc1)c1nc(SCc2ccccc2F)ncc1Cl |  | inactive: -13.4% |
| N#C/C(=C/c1ccc(O)cc1)c1nc(-c2ccc(-c3ccccc3)cc2)cs1 |  | inactive: 0.591% |
| Cc1nc(-c2cccc(F)c2)sc1CCNC(=O)Cc1ccc(F)cc1 |  | inactive: -5.45% |
| Cc1ccc(OCCn2c(CNc3ccccc3C)nc3ccccc32)cc1 |  | inactive: -16.5% |
| Cn1c(C(=O)NCc2ccccc2Cl)cc2sc(Cl)cc21 |  | inactive: 1.53% |
| Cc1cc(NC(=O)c2cnn(-c3ccccc3)c2-n2cccc2)ccc1Br |  | inactive: -11.8% |
| CCc1cccc(NC(=O)Cn2c(=O)n(CC3CCC(C(=O)NC)CC3)c(=O)c3sccc32)c1 (stereo not drawn) |  | inactive: 7.12% |
| COc1cccc(CNC(=O)CN(c2ccc(C)cc2)S(=O)(=O)N(C)C)c1OC |  | inactive: -0.711% |
| COc1ccc(-c2csc3ncnc(Nc4ccc(OC)cc4OC)c23)cc1 |  | inactive: 0% |
| COc1cccc(-c2nc3c(C#N)c[nH]n3c2NC2CCCCC2)c1 |  | inactive: -4.26% |
| N#CC1=C(N)N(c2ccc(Cl)cc2)C2=C(C(=O)CCC2)C1c1cc(CN2CCOCC2)cs1 (stereo not drawn) |  | inactive: -11.8% |
| COc1cc(NS(=O)(=O)c2cc(Br)cc3c2N(C(C)=O)C(C)C3)cc(OC)c1 (stereo not drawn) |  | inactive: -8.56% |
| O=C(NC1CCCCC1)c1ccc2c(c1)N(Cc1ccc(F)cc1)C(=O)c1ccccc1S2(=O)=O |  | inactive: -1.76% |
